Where a chain is given by its changes, count along the chain named. No constants are given. Whether binding was seen depends on the method and setting. In cells and extracts the contact can be indirect. Some binding calls cover weakened binding; strength is not graded here. Where a sequence is shown, tags or fusion partners need not be part of it.
Legend:
Assay in all cases: co-IP; yeast lysate (50 mM Tris pH 7.5, 0.2% NP40, 150 mM NaCl, 1 mM EDTA); Trs85-mNeonGreen captured on mNeonGreen-Trap resin, Trs23-6xHis-3xFLAG detected by anti-FLAG blot
[1] = target: T1, Trs85-mNeonGreen R620A (Saccharomyces cerevisiae) (UniProt P46944)
T1 sequence: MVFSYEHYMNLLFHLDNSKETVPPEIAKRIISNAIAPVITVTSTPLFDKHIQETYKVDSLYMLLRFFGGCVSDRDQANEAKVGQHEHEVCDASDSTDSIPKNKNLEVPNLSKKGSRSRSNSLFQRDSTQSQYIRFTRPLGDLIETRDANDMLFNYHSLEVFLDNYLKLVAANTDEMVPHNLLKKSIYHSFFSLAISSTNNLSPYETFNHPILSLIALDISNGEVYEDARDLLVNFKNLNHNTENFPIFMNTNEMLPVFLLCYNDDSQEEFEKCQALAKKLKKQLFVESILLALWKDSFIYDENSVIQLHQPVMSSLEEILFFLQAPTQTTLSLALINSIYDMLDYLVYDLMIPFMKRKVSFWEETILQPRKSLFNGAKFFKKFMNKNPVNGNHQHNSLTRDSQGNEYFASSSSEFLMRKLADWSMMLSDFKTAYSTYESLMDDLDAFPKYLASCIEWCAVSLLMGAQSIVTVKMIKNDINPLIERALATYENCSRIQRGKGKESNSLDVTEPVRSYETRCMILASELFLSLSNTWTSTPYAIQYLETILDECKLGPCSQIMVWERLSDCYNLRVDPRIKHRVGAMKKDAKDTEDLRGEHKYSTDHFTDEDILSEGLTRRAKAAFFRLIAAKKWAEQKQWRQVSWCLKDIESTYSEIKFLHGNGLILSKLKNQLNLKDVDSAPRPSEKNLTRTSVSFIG

[2] = target: T2, Trs85-mNeonGreen R620E (Saccharomyces cerevisiae) (UniProt P46944)
T2 sequence: T1 sequence with A620E

[3] = target: T3, Trs85-mNeonGreen Δ575-603 (Saccharomyces cerevisiae) (UniProt P46944)
T3 sequence: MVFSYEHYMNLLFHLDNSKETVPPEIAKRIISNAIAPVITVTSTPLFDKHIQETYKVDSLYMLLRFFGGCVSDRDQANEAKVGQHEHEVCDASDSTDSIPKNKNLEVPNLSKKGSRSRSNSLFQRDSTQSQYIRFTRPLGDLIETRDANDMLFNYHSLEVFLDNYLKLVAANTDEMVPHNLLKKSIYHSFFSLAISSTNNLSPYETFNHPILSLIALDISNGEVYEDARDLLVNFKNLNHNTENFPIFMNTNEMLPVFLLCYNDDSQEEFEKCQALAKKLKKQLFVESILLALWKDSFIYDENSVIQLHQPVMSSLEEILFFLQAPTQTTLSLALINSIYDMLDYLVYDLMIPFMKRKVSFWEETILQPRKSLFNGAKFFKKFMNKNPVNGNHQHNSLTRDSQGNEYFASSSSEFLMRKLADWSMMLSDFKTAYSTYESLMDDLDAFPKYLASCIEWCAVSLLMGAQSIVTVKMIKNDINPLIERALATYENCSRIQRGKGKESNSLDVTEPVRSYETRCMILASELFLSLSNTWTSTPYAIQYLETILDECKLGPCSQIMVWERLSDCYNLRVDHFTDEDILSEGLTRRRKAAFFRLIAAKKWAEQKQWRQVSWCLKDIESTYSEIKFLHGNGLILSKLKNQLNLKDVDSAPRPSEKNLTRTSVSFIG

B1: TRAPP core (endogenous in yeast, with Trs23-6xHis-3xFLAG) (complex, UniProt Q03784 1-219; P38334 1-175; Q03337 1-283; P36149 1-193; Q03630 1-159; Q99394 …)
chain 1: MAIETILVINKSGGLIYQRNFTNDEQKLNSNEYLILASTLHGVFAIASQLTPKALQLTQQTNIENTIPYIPYVGMSSNRSDTRNGGGNNNKHTNNEKLGSFKGDDFFKEPFTNWNKSGLRQLCTDQFTMFIYQTLTGLKFVAISSSVMPQRQPTIATTDKPDRPKSTSNLAIQIADNFLRKVYCLYSDYVMKDPSYSMEMPIRSNLFDEKVKKMVENLQ
chain 2: MPQYFAIIGKKDNPVYEIEFTNAENPQGFPQDLKELNPFILHASLDIVEDLQWQINPTSQLNGNGGNGSNGGGGFLRSRAVNNTDNCYLGKVDHFYGLAITAYISYSGMKFVMIHGNSANSSVVIDDNNMRSFYQEVHELYVKTLMNPFYKITDPIRSPAFDSRVRTLARKHLSK
chain 3: MSQRIIQPSASDQQFPGKSDGYEYTVGPKQAITSEASTTYIPSRIYSESLLFKRQEASLSAMAFLFQEMISQLHRTCKTAGDFETKLSDYGHNIGIRLLELLNFRASVSPSSLPRASAFLSQNESSSKLSNASNSPGMLANSSTATSASANERLQEKQTESLSNYITKMRRRDLKILDILQFIHGTLWSYLFNHVSDDLVKSSERDNEYMIVDNFPTLTQFIPGENVSCEYFVCGIIKGFLFNAGFPCGVTAHRMPQGGHSQRTVYLIQFDRQVLDREGLRFG
chain 4: MVSTTQSRSLKAMGEEIWKNKTEKINTELFTLTYGSIVAQLCQDYERDFNKVNDHLYSMGYNIGCRLIEDFLARTALPRCENLVKTSEVLSKCAFKIFLNITPNITNWSHNKDTFSLILDENPLADFVELPMDAMKSLWYSNILCGVLKGSLEMVQLDCDVWFVSDILRGDSQTEIKVKLNRILKDEIPIGED
chain 5: MGIYSFWIFDRHCNCIFDREWTLASNSASGTINSKQNEEDAKLLYGMIFSLRSITQKLSKGSVKNDIRSISTGKYRVHTYCTASGLWFVLLSDFKQQSYTQVLQYIYSHIYVKYVSNNLLSPYDFAENENEMRGQGTRKITNRNFISVLESFLAPMVNQ
chain 6: MSSTHSNNVGHPQSSPQGPLTEQQRAQQQYQIFENSLPKVSQSVYQMLLNEMVPLAMGIERQISGDVISSDSNVTSENGNINNMIKRLKIEEHHTVDIIRSHNLIHELYKADEEEKEKVLARLRNIGFQIGLKLSELLIFSNNPNLKFKEMDLLLIMKFICRDVWKQIFGKQIDNLKTNHRGTFYLLDYDYRPIQSFSLEEDAKNEELKMIEPFLEIPVGIIRGVLSSLGYSSEEVICLASFIDRPTDRPKTAFPKGVSFHVQVTMPQ
binding [1]: binds | binding [2]: no binding | binding [3]: binds

Source: publication PMC8204860
